Experimental findings from paper PMC12136788 are described below.

B1: chr1:965281:965395:+|3pUTR|ENSG00000187961|unk|FALSE|unique (ssRNA)
RNA: GGGAGUUCUACAGUCCGACGAUCCCAUCCGUUCACGUCUCUGCAUCCAUUCCUUCAUGUCUUUAUUUAGUUGUUUAUUUAUUUAGUUAUUUAUCUUAUUUAUUGAGGGGUGAGGAGUGCCACGGCUGCCCGUUUACACCUUUACAACAGAGGAUUGAGCAUCA
B2: chr7:130166276:130166377:-|3pUTR|ENSG00000146842|msi1|total|mutant (ssRNA)
RNA: GGGAGUUCUACAGUCCGACGAUCUCUCUGAGCCACUGACUCUUCUGAAAUAAAAUACACAUGGGUGUAUGUUACAGACUCUUCCGAUUUAACAGAAAAUGCCGCUGUUAUGAAAUGUAAUUGUAAAAAUAUGUCCCGUAUCUUCAACAGAGGAUUGAGCAUCA
B3: ENSG00000107863:be:win_151|CDS|ENSG00000107863|bound_else_gene|NA|bound_elsewhere_windowed (ssRNA)
RNA: GGGAGUUCUACAGUCCGACGAUCGUUACGUUGAAAAGAACAUCUCAAGGCUUUGGUUUUACAUUAAGACAUUUUAUUGUUUAUCCCCCAGAGUCUGCAAUUCAAUUUUCAUAUAAGGAUGAAGAAAAUGGAAACAGAGGAGGACAACAGAGGAUUGAGCAUCA
B4: chr15:97973610:97973711:+|3pUTR|ENSG00000140450|unk|total|mutant (ssRNA)
RNA: GGGAGUUCUACAGUCCGACGAUCGGUGCACAAAAUCCUUCUGUGGGCAAAACUUUGUUUUUGUUUUGCACAGUAAGAAACAACCGGCAAGCGUUAUGUUUUUGGUAAGUUAACUAUGAAAGCUUUCUUAUUUUUAUUAUUAAACAACAGAGGAUUGAGCAUCA
B5: chr11:88113250:88114123:-|three_prime_utr|ENSG00000123892|control|control|control (ssRNA)
RNA: GGGAGUUCUACAGUCCGACGAUCUCGUGAAGCCCCAUCUCACAUCAACCAAGGUUGCCAGCUGCUCUGGCUGUGCCAAAUCCUAGUAGGCACCUUUGCUGGUGUCUGGUAGGAAUGACCUCAUUGUUCCACAAAUUGUGCCUCCAACAGAGGAUUGAGCAUCA
B6: chr11:35619468:35619569:+|CDS|ENSG00000179431|unk|total|mutant (ssRNA)
RNA: GGGAGUUCUACAGUCCGACGAUCCCCCCUCCGGGAUGCCGGGGGUGAGCUGGCCAACCUCAGCCAGGCGGAGCUGGUGGACCCCGUACAAUGGACCGACUUAAUCCUUUUCGACUACCUGACGGCCAACUUCGACCGGCUCGUCAACAGAGGAUUGAGCAUCA
B7: chrX:71101288:71101389:+|CDS|ENSG00000184481|unk|total|mutant (ssRNA)
RNA: GGGAGUUCUACAGUCCGACGAUCGGAGGCCCUGCUCACCUCUGAUACGCCACCACCCCCUGCUGACGUCCUCAUGACCCAGGCCGAUCCCAUUCUGUCCCAGGCUCCGACUCUUCUGUUGCUGGGGGGGCUUCCUUCCUCCAGCAACAGAGGAUUGAGCAUCA
B8: chr3:45082276:45085637:-|three_prime_utr|ENSG00000163814|control|control|control (ssRNA)
RNA: GGGAGUUCUACAGUCCGACGAUCAUUGAAAAUGAUGAAUUCCAAUCUGGAUACAGUCAUGACAGCUCAUGUGCUCCUCAACUUAGGCUGUGCGGUUAGCCAGCCUGUAAUGAGAGGAGAGAGGCCUGAGUCACCUAGCAUAGGCAACAGAGGAUUGAGCAUCA
B9: chr5:136063637:136063821:+|3pUTR|ENSG00000120708|msi1|FALSE|unique (ssRNA)
RNA: GGGAGUUCUACAGUCCGACGAUCUGUCAAAUGUGUCUCACAUCUACACGUGGCUUGGAGGCUUUUAUGGGGCCCUGUCCAGGUAGAAAAGAAAUGGUAUGUAGAGCUUAGAUUUCCCUAUUGUGACAGAGCCAUGGUGUGUUUCAACAGAGGAUUGAGCAUCA
B10: chr13:95044265:95044438:-|CDS|ENSG00000125257|control|control|control (ssRNA)
RNA: GGGAGUUCUACAGUCCGACGAUCACCAUUGAAGAUCUUCCUGGUAAAAUGGAUACUGAAUUAGCAGAAUCAGGAUCCAAUUUUAGUGUUGGACAAAGACAACUGGUGUGCCUUGCCAGGGCAAUUCUCAGGAAAAAUCAGAUACAACAGAGGAUUGAGCAUCA
B11: chr10:94132299:94132400:+|CDS|ENSG00000138193|unk|total|mutant (ssRNA)
RNA: GGGAGUUCUACAGUCCGACGAUCUGAGUAUCGCGCCACCCUCCAAAGGACUUCAAUAUCGCAGUACAUCACCGGUUCUCUCCCCGAAGCAACCACGUCUUUGGGAGCAAGAAGUGGCCUUCUCAGUACUUUUGGAGGAUCCACCAACAGAGGAUUGAGCAUCA
B12: chr4:75597091:75597192:-|CDS|ENSG00000138769|unk|total|mutant (ssRNA)
RNA: GGGAGUUCUACAGUCCGACGAUCUAUAAACUAUUUAAAAUAAAAGGCUCAAAAAUUGAUGGAGAAAAAGCUGAAAAAGGCAACCGAGCUUCAAAUGCCAGCUGUCUCCAUGACAGCCGGACAAGCCACAACAAAACCGUGCCUCAACAGAGGAUUGAGCAUCA
B13: chr2:236324146:236324783:-|three_prime_utr|ENSG00000132321|control|control|control (ssRNA)
RNA: GGGAGUUCUACAGUCCGACGAUCACUCGCCAAAGAAAAGAUUCACCAUUGCCCGCCUGAAGAAGCCCUCAGGGGAAGGAACUUAGCAGUGUGCAGGUGAGCUGAUGCCGCAAACCCGCUAACCACUGCAUGUGCUGUUAUGCCCAACAGAGGAUUGAGCAUCA
B14: ENSG00000107863:be:win_5301|CDS|ENSG00000107863|bound_else_gene|NA|bound_elsewhere_windowed (ssRNA)
RNA: GGGAGUUCUACAGUCCGACGAUCUCGGUUAAAACUGAGACCCAGAGCCCCUGCGGAUGACAUGUUUGGAGUAGGGAAUCACAAAGUGAAUGCCGAGACUGCUAAAAGGAAAAGCAUCCGGCGCAGACAUACACUAGGAGGGCACAACAGAGGAUUGAGCAUCA
B15: chr2:224470697:224470798:-|3pUTR|ENSG00000036257|msi1|total|mutant (ssRNA)
RNA: GGGAGUUCUACAGUCCGACGAUCUGUGACAAACUAAAGUUAAUACAUGAAGCAUUGCAAUAUGGAAUUUUGCACAUUUUUGUCCGCUUUACAUUAUUUGCUGAUACCAACUUUUGGCCGGAAGGAAAACAGGGAAGGUGAUUGCAACAGAGGAUUGAGCAUCA
B16: chr12:108645191:108645284:-|3pUTR|ENSG00000110880|msi1_unk|FALSE|overlapping (ssRNA)
RNA: GGGAGUUCUACAGUCCGACGAUCUCUUUUUUUUUUUUUUUUUUUAAGCCAUGACAUCCCAGAAGAGGACAGUGAAUUACUCCUAGGUCGGCUCUUAUAGAGUGGCCAUAGUGUUCUGUCAAAACACUUGCUUCCAUUUUCAGACAACAGAGGAUUGAGCAUCA
B17: chrX:11121696:11121802:+|CDS|ENSG00000004961|unk|total|mutant (ssRNA)
RNA: GGGAGUUCUACAGUCCGACGAUCUGAUGGUGGUGAAGUCAACAAGGACUACCAGUUCACCAUCCUGGACGUCCGUCCUGCCUCCGAUUCACUUUCGGCAGUAUGGGACAGAAUGAAAGUCGCUUGGUGGCGUUGGACCUCGUACAACAGAGGAUUGAGCAUCA
B18: chr20:4701031:4701132:+|3pUTR|ENSG00000171867|msi1|total|mutant (ssRNA)
RNA: GGGAGUUCUACAGUCCGACGAUCCACCGUUUCUGUAAUUGGCUUUUGAAUCAAAGAACCGGGAGACAAUCUAAAAAAUAUCUCCGGUUGGAGAUGACAGAAAUAUGAUUGAUUUGAAGUGGAAAAAGAAAUUCUGUUAAUGUUCAACAGAGGAUUGAGCAUCA
B19: chr8:38210141:38210254:+|CDS|ENSG00000156735|unk|total|mutant (ssRNA)
RNA: GGGAGUUCUACAGUCCGACGAUCGCUGAGCCUCAGCUGUAUGGUAAUGCCACCAGUGACCAUCCCAACAAUCAAGAUCAAAGCCGCAGUCUUCCUGAAGAAUGUGUACCUUCAGAUGAAAGUACUCCUCCGAGUAUUAAAAAACAACAGAGGAUUGAGCAUCA
B20: chr2:219567275:219567376:-|CDS|ENSG00000124006|msi1|total|mutant (ssRNA)
RNA: GGGAGUUCUACAGUCCGACGAUCUGUGUGCCCUCCGAGGGUGACUACCGCUUCCGCAUCUGCACAGUCAGCGGACAUGGCCGCCGUCCCCACGUGGUGUUCCACGGUUCUGCUCACCUUGGUGAGUUGGUCCUGCCAGACCCACAACAGAGGAUUGAGCAUCA
B21: ENSG00000198589:be:win_8001|CDS|ENSG00000198589|bound_else_gene|NA|bound_elsewhere_windowed (ssRNA)
RNA: GGGAGUUCUACAGUCCGACGAUCUGGAGAUAACCCAGGCAGUGAGACUGCUGCUCCUCGGGCCAUUUUGACCGGCCAUGACUAUGAGGUCACAUGUGCUGCGGUGUGUGCGGAGCUAGGCCUGGUGUUGAGUGGUUCACAAGACAACAGAGGAUUGAGCAUCA
B22: chr1:151048051:151048152:+|CDS|ENSG00000143443|unk|total|mutant (ssRNA)
RNA: GGGAGUUCUACAGUCCGACGAUCGACCGCCUGGCUGGACCAGCGGCUGCCGAGCUCUUGGCCGCCACGGUGUCCACCGGCUUCCGCCGGUCGUCCGCCAUUAACGAGGAGGAUGGGUCUUCAGAAGAGGGGGUUGUGAUUAAUCAACAGAGGAUUGAGCAUCA

The list shows a part of the results.

The assay concerns the target MSI1 full-length (mouse, UniProt Q61474 1-362). Kind of assay: nsRBNS (natural sequence RNA bind-n-seq); RBNS binding buffer (assumed for nsRBNS): 25 mM Tris pH 7.5, 150 mM KCl, 3 mM MgCl2, 0.01% Triton X-100, 500 ug/ml BSA, 20 U/ml SUPERase-In, 4 C; UNK is unkempt and MSI1 is Musashi-1; names of the RNAs are library labels; protein concentration not given here; high values mean tight binding.
Sequence of UniProt Q61474 (Q61474 whole entry): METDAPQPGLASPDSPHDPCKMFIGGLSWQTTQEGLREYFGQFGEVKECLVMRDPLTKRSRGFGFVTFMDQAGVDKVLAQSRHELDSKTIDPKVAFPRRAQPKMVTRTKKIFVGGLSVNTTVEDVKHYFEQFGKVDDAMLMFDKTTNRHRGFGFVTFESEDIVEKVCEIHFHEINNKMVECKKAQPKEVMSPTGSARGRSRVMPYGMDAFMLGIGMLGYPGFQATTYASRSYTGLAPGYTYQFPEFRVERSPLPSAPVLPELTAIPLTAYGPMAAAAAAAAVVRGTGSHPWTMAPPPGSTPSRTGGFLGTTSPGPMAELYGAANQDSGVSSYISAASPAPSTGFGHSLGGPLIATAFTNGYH
Molecule B1 displayed a binding signal of 64.6 enrichment R.
Next, B2: 0.352 enrichment R; B3: 0.542 enrichment R; B4: 1.02 enrichment R.
Next, B5: 0.357 enrichment R; B6: 0.329 enrichment R; B7: 0.433 enrichment R.
To B8 belongs 0.366 enrichment R; to B9, 2.67 enrichment R; to B10, 0.603 enrichment R.
In the case of B11, the binding signal was determined as 0.404 enrichment R.
Next, B12: 0.978 enrichment R.
Next, B13: 0.38 enrichment R; B14: 0.426 enrichment R; B15: 0.351 enrichment R.
Next, B16: 2.26 enrichment R.
With B17, the binding signal was found to be 0.333 enrichment R.
B18 gave a binding signal of 0.277 enrichment R.
B19 registered a binding signal of 0.38 enrichment R.
To B20 belongs 0.357 enrichment R.
To B21 belongs 0.421 enrichment R.
As for B22, the binding signal stood at 0.473 enrichment R.
